Assay results reported in the supplement of paper PMC12217912.
The other results are listed elsewhere or left out. The full chains were built here from the parent and the listed change. Inactive controls read about 0.05.

B1: TEV protease; numbered along this chain (parent)
chain: MGESLFKGPRDYNPISSSICHLTNESDGHTTSLYGIGFGPFIITNKHLFRRNNGTLVVQSLHGVFKVKDTTTLQQHLVDGRDMIIIRMPKDFPPFPQKLKFREPQREERICLVTTNFQTKSMSSMVSDTSCTFPSGDGIFWKHWIQTKDGQCGSPLVSTRDGFIVGIHSASNFTNTNNYFTSVPKNFMELLTNQEAQQWVSGWRLNADSVLWGGHKVFMVKPEEPFQPVKEATQL

Variants of: B1
Test: raw area under fraction-flipped curve 0-4 h after induction (AUC4h, not background-subtracted), DNA-recorder readout of cleavage of the substrate (dimensionless); higher = more cleavage of the substrate by the protease variant
Settings: temperature: 34 °C; time window: 0-4 h after rhamnose induction
Description: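 In vivo DNA recorder in E. coli TOP10(DE3) ΔrhaA at 34 °C. Each TEVp single-site mutant (parent TEVp 0) is paired with a single-site variant of the 7-mer TEVs (canonical ENLYFQ|S). The substrate sits between flexible linkers in a Bxb1-sfGFP-TEVs-SsrA fusion, so cleavage stabilises Bxb1 and speeds flipping of a recombination array, read by NGS. The value is the raw area under the fraction-flipped curve over 0-4 h after rhamnose induction (AUC4h), with ≥20 reads per time point. It is not background-subtracted; inactive controls average about 0.047.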
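Also: Bxb1 expression induced with 0.2% (w/v) L-rhamnose at OD600 near 0.5, cultures sampled hourly, flipped fraction per protease–substrate barcode pair counted by paired-end Illumina sequencing.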

Row | Variant | area with substrate ENLYFQC | area with substrate ENLYFQD | area with substrate ENLYFQF | area with substrate ENLYFQG | area with substrate ENLYFQH | area with substrate ENLYFQI | area with substrate ENLYFQK | area with substrate ENLYFQL | area with substrate ENLYFQN | area with substrate ENLYFQP | area with substrate ENLYFQR | area with substrate ENLYFQS | area with substrate ENLYFQT | area with substrate ENLYFQW | area with substrate ENLYFQY | area with substrate ENLYFQV | area with substrate ENLYFQM | area with substrate ENLYFQQ | area with substrate ENLYFQE
1 | V64C | 0.12 | 0.0713 | 0.0795 | 0.0853 | 0.101 | 0.0668 | 0.0743 | 0.0794 | 0.0736 | 0.0574 | 0.0545 | 0.0976 | 0.0646 | 0.0674 | 0.0853 |  |  |  | 
2 | V64K | 0.129 | 0.0815 |  | 0.102 | 0.0668 | 0.0543 |  |  |  | 0.0641 | 0.0604 | 0.106 | 0.0688 | 0.0711 |  | 0.0747 |  |  | 
3 | V64T | 0.107 |  |  | 0.0825 |  | 0.0688 |  | 0.0596 |  |  |  | 0.109 | 0.0742 | 0.0683 |  |  |  |  | 
4 | R81N | 0.104 | 0.0701 |  | 0.0835 | 0.0796 | 0.0539 | 0.0588 | 0.0576 |  |  | 0.0528 | 0.0852 | 0.0663 | 0.0566 |  | 0.0522 | 0.0645 |  | 
5 | R81T | 0.0859 |  | 0.0552 | 0.0778 |  | 0.0621 | 0.0708 | 0.0605 | 0.0563 | 0.0666 | 0.0495 | 0.0765 | 0.0574 | 0.0645 | 0.0517 |  |  |  | 
6 | M88G | 0.0798 |  |  | 0.157 |  | 0.0419 | 0.0498 | 0.0418 | 0.0788 | 0.0507 | 0.0434 | 0.0706 | 0.048 | 0.0448 | 0.0515 | 0.0465 |  | 0.06 | 
7 | P96S | 0.135 |  |  | 0.105 |  | 0.0741 | 0.0638 |  |  |  |  | 0.101 | 0.0639 |  | 0.0542 | 0.0647 | 0.0931 |  | 
8 | L112F | 0.111 | 0.0626 | 0.101 | 0.0946 | 0.0895 | 0.08 |  |  | 0.0602 | 0.0288 | 0.0569 | 0.0952 | 0.0517 | 0.0729 |  | 0.0277 |  |  | 0.0545
9 | L112H | 0.0555 | 0.0553 |  | 0.0816 |  | 0.0592 | 0.065 | 0.0504 | 0.0866 | 0.0619 | 0.0741 | 0.0718 | 0.0613 | 0.0603 | 0.0591 | 0.0557 | 0.0608 |  | 
10 | L112I | 0.092 | 0.0612 | 0.0547 | 0.0899 |  |  |  | 0.0696 | 0.0797 | 0.0668 | 0.0571 | 0.0992 | 0.0685 | 0.0416 | 0.0843 |  |  |  | 0.0673
11 | L112Y | 0.067 | 0.0541 | 0.0443 | 0.0584 |  | 0.052 |  | 0.0631 | 0.069 | 0.0519 | 0.0513 | 0.0705 |  | 0.0568 | 0.0656 |  |  |  | 
12 | F117N | 0.107 |  | 0.0664 |  |  | 0.0666 | 0.0567 |  | 0.0984 | 0.0648 | 0.0736 | 0.102 | 0.0808 | 0.0482 | 0.0791 | 0.0657 | 0.0951 | 0.0754 | 
13 | K120G | 0.113 | 0.0682 | 0.0763 |  |  | 0.0507 | 0.0462 | 0.0614 | 0.0444 | 0.0489 | 0.0616 | 0.0973 | 0.0606 | 0.067 |  |  | 0.132 |  | 
14 | D128C | 0.153 |  | 0.101 |  |  | 0.0344 | 0.0808 | 0.0518 | 0.084 |  |  | 0.127 | 0.0612 |  | 0.0751 |  | 0.0872 |  | 
